The text below walks through data of patent US20250101135A1 (Hoffmann-La Roche, published 2025).

Positions count from the first letter of the chain named.

Assay [1] addresses T1, human fibroblast activation protein (FAP) on cells (human, UniProt Q12884 1-760).
T1 construct: also called human FAP; huFAP
The experiment in a line: flow cytometry on NIH/3T3-huFAP clone 39 cells. A general note: A flow cytometer gives signals particle by particle.

The target in assay [2] is T2, human 4-1BB (CD137) on cells (human, UniProt Q07011 24-255).
T2 construct: whole, on cells; also called 4-1BB+CD8+; 4-1BB+CD4+
The experiment in a line: flow cytometry on activated human PBMC, 4-1BB+ CD3+CD4+ T cells.

The target of assay [3] is T2, human 4-1BB (CD137) on cells. The experiment in a line: flow cytometry on activated human PBMC, 4-1BB+ CD3+CD8+ T cells.
The target of assay [4] is T1, human fibroblast activation protein …. As to the kind of experiment: flow cytometry on FAP+ MV-3 cells.
For assay [5] the target is unchanged. As to the kind of experiment: flow cytometry on FAP+ WM-266-4 cells.
Assay [6] has as its target T2, human 4-1BB (CD137) on cells. As to the kind of experiment: flow cytometry on activated human PBMC, 4-1BB+ CD4+ T cells.
Assay [7] shares this target. As to the kind of experiment: flow cytometry on activated human PBMC, 4-1BB+ CD8+ T cells.

B1: monovalent FAP(28H1)-targeted human 4-1BB ligand (71-254) trimer-containing Fc (kih) fusion molecule Construct 1.3 (Fc fusion)
chain 1: [no letters for about 200 residues]GGGGSGGGGSREGPELSPDDPAGLLDLRQGMFAQLVAQNVLLIDGPLSWYSDPGLAGVSLTGGLSYKEDTKELVVAKAGVYYVFFQLELRRVVAGEGSGSVSLALHLQPLRSAAGAAALALTVDLPPASSEARNSAFGFQGRLLHLSAGQRLGVHLHTEARARHAWQLTQGATVLGLFRVTPEIPAGLPSPRSEGGGGSGGGGSASTKGPSVFPLAPSSKSTSGGTAALGCLVEDYFPEPVTVSWNSGALTSGVHTFPAVLQSSGLYSLSSVVTVPSSSLGTQTYICNVNHKPSNTKVDEKV[no letters for human IgG1 Fc with changes]
chain 2: [no letters for about 200 residues][no letters for about 120 residues]
heavy: EVQLLESGGGLVQPGGSLRLSCAASGFTFSSHAMSWVRQAPGKGLEWVSAIWASGEQYYADSVKGRFTISRDNSKNTLYLQMNSLRAEDTAVYYCAKGWLGNFDYWGQGTLVTVSSASVAAPSVFIFPPSDEQLKSGTASVVCLLNNFYPREAKVQWKVDNALQSGNSQESVTEQDSKDSTYSLSSTLTLSKADYEKHKVYACEVTHQGLSSPVTKSFNRGECDKTHTCPPCPAPEAAGGPSVFLFPPKPKDTLMISRTPEVTCVVVDVSHEDPEVKFNWYVDGVEVHNAKTKPREEQYNSTYRVVSVLTVLHQDWLNGKEYKCKVSNKALGAPIEKTISKAKGQPREPQVCTLPPSRDELTKNQVSLSCAVKGFYPSDIAVEWESNGQPENNYKTTPPVLDSDGSFFLVSKLTVDKSRWQQGNVFSCSVMHEALHNHYTQKSLSLSPGK
light: EIVLTQSPGTLSLSPGERATLSCRASQSVSRSYLAWYQQKPGQAPRLLIIGASTRATGIPDRFSGSGSGTDFTLTISRLEPEDFAVYYCQQGQVIPPTFGQGTKVEIKSSASTKGPSVFPLAPSSKSTSGGTAALGCLVKDYFPEPVTVSWNSGALTSGVHTFPAVLQSSGLYSLSSVVTVPSSSLGTQTYICNVNHKPSNTKVDKKVEPKSC
notes: CH1-CL crossover in the anti-FAP Fab, charged residues on the 4-1BBL chains
As to B1, the EC50 in assay [1] is 15 nM; in assay [2] it was 2.82 nM; in assay [3], 0.07 nM.

B2: monovalent FAP(4B9)-targeted human 4-1BB ligand (71-248) containing Fc (kih) fusion molecule Construct 2.4 (Fc fusion)
chain 1: REGPELSPDDPAGLLDLRQGMFAQLVAQNVLLIDGPLSWYSDPGLAGVSLTGGLSYKEDTKELVVAKAGVYYVFFQLELRRVVAGEGSGSVSLALHLQPLRSAAGAAALALTVDLPPASSEARNSAFGFQGRLLHLSAGQRLGVHLHTEARARHAWQLTQGATVLGLFRVTPEIPAGLGGGGSGGGGSREGPELSPDDPAGLLDLRQGMFAQLVAQNVLLIDGPLSWYSDPGLAGVSLTGGLSYKEDTKELVVAKAGVYYVFFQLELRRVVAGEGSGSVSLALHLQPLRSAAGAAALALTVDLPPASSEARNSAFGFQGRLLHLSAGQRLGVHLHTEARARHAWQLTQGATVLGLFRVTPEIPAGLGGGGSGGGGSRTVAAPSVFIFPPSDRKLKSGTASVVCLLNNFYPREAKVQWKVDNALQSGNSQESVTEQDSKDSTYSLSSTLTLSKADYEKHKVYACEVTHQGLSSPVTKSFNRGE[no letters for human IgG1 Fc with changes]
chain 2: REGPELSPDDPAGLLDLRQGMFAQLVAQNVLLIDGPLSWYSDPGLAGVSLTGGLSYKEDTKELVVAKAGVYYVFFQLELRRVVAGEGSGSVSLALHLQPLRSAAGAAALALTVDLPPASSEARNSAFGFQGRLLHLSAGQRLGVHLHTEARARHAWQLTQGATVLGLFRVTPEIPAGLGGGGSGGGGSASTKGPSVFPLAPSSKSTSGGTAALGCLVEDYFPEPVTVSWNSGALTSGVHTFPAVLQSSGLYSLSSVVTVPSSSLGTQTYICNVNHKPSNTKVDEKVEPKSC
heavy: EVQLLESGGGLVQPGGSLRLSCAASGFTFSSYAMSWVRQAPGKGLEWVSAIIGSGASTYYADSVKGRFTISRDNSKNTLYLQMNSLRAEDTAVYYCAKGWFGGFNYWGQGTLVTVSSASTKGPSVFPLAPSSKSTSGGTAALGCLVKDYFPEPVTVSWNSGALTSGVHTFPAVLQSSGLYSLSSVVTVPSSSLGTQTYICNVNHKPSNTKVDKKVEPKSCDKTHTCPPCPAPEAAGGPSVFLFPPKPKDTLMISRTPEVTCVVVDVSHEDPEVKFNWYVDGVEVHNAKTKPREEQYNSTYRVVSVLTVLHQDWLNGKEYKCKVSNKALGAPIEKTISKAKGQPREPQVCTLPPSRDELTKNQVSLSCAVKGFYPSDIAVEWESNGQPENNYKTTPPVLDSDGSFFLVSKLTVDKSRWQQGNVFSCSVMHEALHNHYTQKSLSLSPGK
light: EIVLTQSPGTLSLSPGERATLSCRASQSVTSSYLAWYQQKPGQAPRLLINVGSRRATGIPDRFSGSGSGTDFTLTISRLEPEDFAVYYCQQGIMLPPTFGQGTKVEIKRTVAAPSVFIFPPSDEQLKSGTASVVCLLNNFYPREAKVQWKVDNALQSGNSQESVTEQDSKDSTYSLSSTLTLSKADYEKHKVYACEVTHQGLSSPVTKSFNRGEC
notes: crossed CH1-CL with charged residues
Take B2: the EC50 in assay [4] stood at 0.83 nM; in assay [5] it was 0.59 nM; in assay [6], 0.38 nM; in assay [7], 0.3 nM.

B3: bivalent FAP(4B9)-targeted human 4-1BB ligand (71-254) containing Fc (kih) fusion molecule Construct 2.3 (Fc fusion)
heavy 1: EVQLLESGGGLVQPGGSLRLSCAASGFTFSSYAMSWVRQAPGKGLEWVSAIIGSGASTYYADSVKGRFTISRDNSKNTLYLQMNSLRAEDTAVYYCAKGWFGGFNYWGQGTLVTVSSASTKGPSVFPLAPSSKSTSGGTAALGCLVKDYFPEPVTVSWNSGALTSGVHTFPAVLQSSGLYSLSSVVTVPSSSLGTQTYICNVNHKPSNTKVDKKVEPKSCDKTHTCPPCPAPEAAGGPSVFLFPPKPKDTLMISRTPEVTCVVVDVSHEDPEVKFNWYVDGVEVHNAKTKPREEQYNSTYRVVSVLTVLHQDWLNGKEYKCKVSNKALGAPIEKTISKAKGQPREPQVCTLPPSRDELTKNQVSLSCAVKGFYPSDIAVEWESNGQPENNYKTTPPVLDSDGSFFLVSKLTVDKSRWQQGNVFSCSVMHEALHNHYTQKSLSLSPGGGGGSGGGGSREGPELSPDDPAGLLDLRQGMFAQLVAQNVLLIDGPLSWYSDPGLAGVSLTGGLSYKEDTKELVVAKAGVYYVFFQLELRRVVAGEGSGSVSLALHLQPLRSAAGAAALALTVDLPPASSEARNSAFGFQGRLLHLSAGQRLGVHLHTEARARHAWQLTQGATVLGLFRVTPEIPAGLPSPRSEGGGGSGGGGSREGPELSPDDPAGLLDLRQGMFAQLVAQNVLLIDGPLSWYSDPGLAGVSLTGGLSYKEDTKELVVAKAGVYYVFFQLELRRVVAGEGSGSVSLALHLQPLRSAAGAAALALTVDLPPASSEARNSAFGFQGRLLHLSAGQRLGVHLHTEARARHAWQLTQGATVLGLFRVTPEIPAGLPSPRSE
heavy 2: EVQLLESGGGLVQPGGSLRLSCAASGFTFSSYAMSWVRQAPGKGLEWVSAIIGSGASTYYADSVKGRFTISRDNSKNTLYLQMNSLRAEDTAVYYCAKGWFGGFNYWGQGTLVTVSSASTKGPSVFPLAPSSKSTSGGTAALGCLVKDYFPEPVTVSWNSGALTSGVHTFPAVLQSSGLYSLSSVVTVPSSSLGTQTYICNVNHKPSNTKVDKKV[no letters for human IgG1 Fc with changes]GGGGSGGGGSREGPELSPDDPAGLLDLRQGMFAQLVAQNVLLIDGPLSWYSDPGLAGVSLTGGLSYKEDTKELVVAKAGVYYVFFQLELRRVVAGEGSGSVSLALHLQPLRSAAGAAALALTVDLPPASSEARNSAFGFQGRLLHLSAGQRLGVHLHTEARARHAWQLTQGATVLGLFRVTPEIPAGLPSPRSE
light: B2 light
Consider B3, for which the EC50 in assay [4] is 0.53 nM; in assay [5], 0.42 nM; in assay [6], 0.3 nM; in assay [7] it was 0.44 nM.

B4: monovalent FAP(4B9)-targeted human 4-1BB ligand (71-248) containing Fc (kih) fusion molecule Construct 2.5 (Fc fusion)
chain 1: REGPELSPDDPAGLLDLRQGMFAQLVAQNVLLIDGPLSWYSDPGLAGVSLTGGLSYKEDTKELVVAKAGVYYVFFQLELRRVVAGEGSGSVSLALHLQPLRSAAGAAALALTVDLPPASSEARNSAFGFQGRLLHLSAGQRLGVHLHTEARARHAWQLTQGATVLGLFRVTPEIPAGLGGGGSGGGGSREGPELSPDDPAGLLDLRQGMFAQLVAQNVLLIDGPLSWYSDPGLAGVSLTGGLSYKEDTKELVVAKAGVYYVFFQLELRRVVAGEGSGSVSLALHLQPLRSAAGAAALALTVDLPPASSEARNSAFGFQGRLLHLSAGQRLGVHLHTEARARHAWQLTQGATVLGLFRVTPEIPAGLGGGGSGGGGSRTVAAPSVFIFPPSDEQLKSGTASVVCLLNNFYPREAKVQWKVDNALQSGNSQESVTEQDSKDSTYSLSSTLTLSKADYEKHKVYACEVTHQGLSSPVTKSFNRGE[no letters for human IgG1 Fc with changes]
chain 2: B2 chain 2 with E218K, E284K
heavy: B2 heavy
light: B2 light
notes: crossed CH1-CL without charged residues
For B4, the EC50 in assay [4] was 1.66 nM; in assay [5] it was 1.2 nM; in assay [6] it was 0.68 nM; in assay [7], 0.35 nM.

The EC50 is the concentration needed to bring the measured effect to its halfway point. Higher therefore signals lower potency in that assay.
